The text below walks through data of US20190125790A1, “USE OF HYPOCHLOROUS ACID AS A TOPICAL ANTIMICROBIAL” (BIIOSMART TECHNOLOGIES LLC, priority 2016, published 2019).

The subject of the experiment is most common contaminants and pathogens found in skin and genital area. Nature of the experiment: Efficacy on contact as genital skin cleanser, summary of Table 1. The format is cell-based. Conditions: 0.01% aqueous solution; at 30 seconds.

As for `OCl` [HOCl, hypochlorous acid], the efficacy on contact is 99.99%.
